The results in this text go back to PubChem BioAssay AID1240 (Sanford-Burnham Center for Chemical Genomics, 2008).

Out of some 50,000 compounds screened, about 800 (1.6%) showed an effect of 50% or more. This is one part of the list.

The assay deals with Bcl-2-like protein 10 (Homo sapiens) (UniProt Q9HD36). Nature of the assay: Phenotype converters, Bcl-B/TR3 peptide binding displacement, primary biochemical FP (AID 1240).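 Further: 0% = Bcl-B with tracer peptide and DMSO and 100% = tracer peptide lacking Bcl-B.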 The conditions noted are these: GST-Bcl-B / FITC-TR3 peptide fluorescence polarization; stronger effect = higher value; compound at 3.75 mg/L.
Sequence of UniProt Q9HD36 (Q9HD36 whole entry, looked up): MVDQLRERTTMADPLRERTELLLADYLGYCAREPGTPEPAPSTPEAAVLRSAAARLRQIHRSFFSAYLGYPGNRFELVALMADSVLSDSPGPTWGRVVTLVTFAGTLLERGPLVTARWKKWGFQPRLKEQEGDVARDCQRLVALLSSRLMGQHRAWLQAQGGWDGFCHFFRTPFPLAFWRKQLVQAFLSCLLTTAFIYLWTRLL
As to `COc1ccc(C)cc1NC(=O)COc1ccc(Br)c(C)c1`, the displacement was -8.9%. Next, `COc1cccc2cc(-c3nc4ccccc4o3)c(=O)oc12`: 3.9%. Next, `O=C(COc1cccc2ccccc12)NNC(=O)c1ccc(Cl)c(Cl)c1`: -12.3%. As for `Cc1ccc(-c2[nH]n3c(=O)cc(-c4ccccc4)nc3c2C)cc1`, the figure is 15.2%; as for `CC(NC(=O)c1ccc(C(=O)O)cc1C(=O)O)c1ccccc1` (stereo unspecified), 12.8%.

For `CN(C)c1ccc(/C=C2/SC(=S)N(CC(=O)O)C2=O)cc1Br`, the displacement was -7.4%. On to `Brc1ccc2[nH]c3c(c2c1)CCCC3n1cccc1` (stereo unspecified), for which the displacement turned out to be 1.7%. Next, `Cc1cc(/C=C2\SC(=O)NC2=O)c(C)n1-c1cccc([N+](=O)[O-])c1`: 11.6%. Turning to `COc1ccc(/C(C)=N/N=C2/NC(=O)C(CC(=O)Nc3cc(Cl)ccc3Cl)S2)cc1` (stereo unspecified), the displacement was found to be 9.5%. Next, `COc1ccc(Cc2c(O)nc(SC)[nH]c2=O)cc1`: 6.9%; `COc1ccc([N+](=O)[O-])cc1CSc1nc2ccc(N3C(=O)c4ccccc4C3=O)cc2s1`: -33.2%. Next, `COc1cccc(Nc2nc(-c3ccc(S(=O)(=O)N4CCOCC4)cc3)cs2)c1`: 10.4%; `CC1=C(C(=O)OC(C)C)C(c2ccc(C)s2)NC(=O)N1C` (stereo unspecified): -15.1%; `CCOC(=O)c1c(NC(=O)/C=C/c2ccc(OC)c(Br)c2)sc(C(C)=O)c1C`: -13.9%. As to `Cc1ccc(C(=O)Nc2ccc(C(=O)O)cc2)o1`, the displacement is -1.2%. As to `Cc1ccc2oc(C(=O)Nc3cccnc3)c(C)c2c1`, the displacement is -9.8%. As for `CCOC(=O)C1=C(O)/C(=C/c2ccc(N(C)C)cc2)SC1=Nc1cccc(Cl)c1`, the figure is -53.7%; as for `C=CCc1ccccc1OCCn1cc(/C=C2/SC(=S)N(CC)C2=O)c2ccccc21`, 11.6%. Consider `Nc1ccc(C(=O)N2N=C3CCCCC3C2(O)C(F)(F)F)cc1` (stereo unspecified), for which the displacement is -1%. Consider `O=c1oc(-c2ccccc2Cl)nc2sc3c(c12)CCC3`, for which the displacement is -1.7%. As for `COc1cccc(/C=N/NS(C)(=O)=O)c1`, the figure is 7.5%. Next, `CCCCCCCCNS(=O)(=O)c1ccc([N+](=O)[O-])cc1`: 2.7%; `COC(=O)/C(=C/C(C#N)=C/N(C)C)C(C)=O`: -1.2%. Next, `CCCOc1cccc(C(=O)Nc2sc(C)cc2C(=O)OC)c1`: 36.3%.

`O=C(Cc1ccccc1[N+](=O)[O-])NCC1CCCO1` (stereo unspecified): the displacement is -4.4%.

Regarding `Cc1ccc(C)c(S(=O)(=O)n2ccnc2C(C)C)c1`, the displacement was determined as 14.5%. Next, `O=C(/C=C/c1ccc(/C=C/C(=O)c2cccc(N3C(=O)CCC3=O)c2)cc1)c1cccc(N2C(=O)CCC2=O)c1`: 2.2%; `COc1ccc(NC(=O)C(=O)NCCN2CCN(C(=O)c3ccccc3Cl)CC2)cc1`: 9%.

Take `O=C1OC(c2ccccc2)=C/C1=C/c1cccs1`: the displacement worked out at 8.8%. As for `CC1=NC2(CCCc3c2no[n+]3[O-])N(O)C1(C)C` (stereo unspecified), the figure is 6.9%; as for `CN1C(=O)CSC1=Nc1ccc(Br)cc1`, -8.5%; as for `COCCOC(=O)C1=C(C)NC(=O)NC1c1cccs1` (stereo unspecified), -0.7%. Next, `CCc1ccc(-c2cc(C(=O)NC3CC3)c3ccccc3n2)cc1`: 11.5%; `COc1cccc(C(=O)N2CCN(Cc3ccc(F)cc3)CC2)c1OC`: 14%; `O=C1CC(c2ccccc2)CC2=C1C(c1cccc(OCc3ccccc3)c1)Nc1ccccc1N2` (stereo unspecified): -3%. As for `Cc1cc(NS(=O)(=O)c2ccc(N/C=C/C(=O)c3cccs3)cc2)nc(C)n1`, the figure is 2.1%. For the compound `Cc1cccc(N(CC(=O)NCc2ccco2)S(=O)(=O)c2ccccc2)c1`, the displacement was -6.4%. Next, `O=C(NCCOc1ccccc1F)c1cccc2ccccc12`: 12.3%; `O=C(O)CCCCCN1C(=O)C2C3c4ccccc4C(c4ccccc43)C2C1=O` (stereo unspecified): -3.1%; `CCOC(=O)CSc1nnc(-c2ccncc2)n1-c1ccccc1`: -13.2%. Take `O=C(c1ccc(S(=O)(=O)N2CCCC2)cc1)N1CCN(C/C=C/c2ccccc2)CC1`: the displacement is -5.8%. As for `CCOC(=O)c1c(NC(=O)c2cc3n(n2)C(C(F)(F)F)CC(c2ccco2)N3)sc(C)c1C` (stereo unspecified), the figure is 0.1%. For `Cc1ccc(NC(CC(=O)c2ccccc2)c2ccc(F)cc2)cc1` (stereo unspecified), the displacement is -10.7%. Next, `COc1ccc(C2CC(=O)C3=C(C2)NC(C)=C(C#N)C3c2ccc(N(C)C)cc2)cc1` (stereo unspecified): 11.8%.

On to `CCOc1ccc(S(=O)(=O)N(CC(=O)NCc2ccc(OC)cc2)c2ccc(C)cc2)cc1`, for which the displacement was -1.6%. Next, `CCOC(=O)c1c(NC(=O)c2ccc(S(=O)(=O)N3CCCCCC3)cc2)sc(C)c1C`: 31.1%; `Cc1ccc(S(=O)(=O)NC(=O)Nc2cc(C)ccc2F)cc1`: 4.8%; `COc1cc(C(=O)N2c3ccccc3-c3c(ssc3=S)C2(C)C)cc(OC)c1OC`: 16.7%. `Fc1ccc(NC(=S)Nc2ccc(Br)cc2)cc1`: the displacement is -1.3%. As for `O=C(Nc1cc2c(s1)CCCC2)c1ccccc1`, the figure is 11.4%; as for `Cc1ccc(-c2ccc(/C=N/n3nnnc3N)o2)cc1Cl`, -12.3%. In the case of `O=C1NN(c2ccccc2)C(=O)/C1=C\c1cccs1`, the displacement was -10.7%. Next, `COc1ccc(C2=NN(C(=O)CCC(=O)O)C(c3ccccc3F)C2)cc1` (stereo unspecified): 12.3%. Next, `COCCNC(=O)c1ccc(CN(c2cccc(Cl)c2)S(=O)(=O)c2ccc(C)cc2)cc1`: -4%. Next, `CCOc1ccc(C(=O)Nc2cccc(OC)c2)cc1Cl`: -0.1%; `O=C(O)CCCCCCCCCCC1COCCO1` (stereo unspecified): -3.1%; `Cc1cc(/C=N/NC(N)=S)c(C)n1-c1ccc(F)cc1`: -17.6%. For `Oc1ccccc1CNC12CN3CN(CN(C3)C1)C2`, the displacement was -5.2%. Next, `CCCc1cc(=O)oc2cc(OCc3c(F)cccc3Cl)ccc12`: 15.5%; `O=C1C(Cc2ccccc2)NC(=S)N1c1ccccc1` (stereo unspecified): -7.7%; `CCOc1cc(C(=O)Nc2ncccn2)cc(OCC)c1OCC`: 2.2%. With `CCOc1cc(C(=S)N2CCCCC2)cc(I)c1O`, the displacement was determined as 0.1%.

As to `CCN(CC)C(=O)/C(=C/c1cccc([N+](=O)[O-])c1)NC(=O)c1ccc(C)cc1`, the displacement worked out at 26.6%. As for `COc1ccc(S(=O)(=O)Nc2ccc(S(=O)(=O)NC(C)=O)cc2)cc1`, the displacement was -4%. Regarding `COc1cc(C2CC(=O)Nc3c2ccc2ccccc32)ccc1O` (stereo unspecified), the displacement is -13.6%. As for `CC(C)(C)c1ccc(OCC(=O)NCc2ccccn2)cc1`, the figure is -15.1%. Turning to `CCN(CC)CCNC(=O)C1(c2ccccc2)CCOCC1`, the displacement was -1.5%. As for `NC(=O)c1ccc(NC(=O)/C=C/c2ccccc2)cc1`, the figure is -5.5%; as for `Cc1ccc(Cl)cc1NC(=O)c1c(F)c(F)c(F)c(F)c1F`, 6.5%; as for `O=C(CC(c1ccco1)S(=O)(=O)c1ccccc1)c1ccccc1` (stereo unspecified), -6.9%. Next, `O=C(Nc1ccc(Br)c(Br)c1)c1ncn[nH]1`: -4.7%.
